# In the supplement of paper PMC11417369:
# The list shows a part of the results.
# System: PF3D7_0420300 AP2 domain 1 (GST-tagged)
# Assay: gcPBM binding intensity (ln(normalized median fluorescence intensity)); higher = stronger DNA binding
# Outline: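 In this array assay, P. falciparum DNA-binding domains with a GST tag, expressed in E. coli, were applied for 1 h to primer-extended double-stranded 36-bp intergenic genomic probes and negative controls on an Agilent 4 × 180k array. Bound protein was visualised with Alexa488 anti-GST antibody at 488 nm. Binding intensity is the highest Masliner-normalised natural-log median intensity across replicate spots of either probe orientation.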
row,Sequence,gcPBM binding intensity (ln)
1,TAGATTTAAAAAAAAAAAAAATTTTTTTTTTTTTTT [TGCATGCA_negctrl_site593],8.68
2,TTCATATGGAATAAAAGTACGTATTAAAACAATTTT [XGTACX_site8742],9.17
3,TTTAATGAAAGAAACACATACGTATCAAAATATATG [TGCATGCA_negctrl_site510],9.19
4,TACGTTGTATATTTTTGTACATATTGAATTACAAAA [XGTACX_site5906],9.01
5,TTTTAATAATTTATAAAAAAAAAAAAAAAATAAATA [TGCATGCA_negctrl_site419],8.82
6,GTGTACAAAATATGGTAATAAAGTAGTTACATGAAT [CACACA_negctrl_site1775],9.47
7,CTAAATTGTTAATAGAGTACATTTGTATAATATAAG [XGTACX_site594],9.1
8,TTATGTTGTAAATACACACATACATATACATACACA [CACACA_site733],9.51
9,AATAAAATATAATAATTAATATATATATATATATAA [GTGCAC_negctrl_site457],9.04
10,TATGTGAAATAAGGATGTACAATTTTGATTTCCCCA [XGTACX_site8389],9.28
11,TAATTTCTTAGGTATTGTACAAATATTATATGATAT [XGTACX_site256],9.16
12,ATATATCTATAAAAGGCTTCCCACTTTTTTTGTCAA [TGCATGCA_negctrl_site332],9.07
13,ATAATAAAAAAAATTAGTACATATATAAATATAAAT [XGTACX_site1937],9.28
14,AGTACATTTTTGTGTGTGCACTAATATTATATACTT [GTGCAC_site9568],9.68
15,ATTTATTTTATTTTCACACACAAAAATAAATATCCG [CACACA_site2414],9.58
16,TAAATAATATCTATCACACACGCATAAATACAGATA [CACACA_site5449],9.73
17,ATAAAAAAAAAAAAAAGTACACATATAAAAGTATTG [XGTACX_site8265],9.44
18,TATAATGTATGTAGTGCACACCTCTATAATATATTA [CACACA_site8560],9.26
19,ATTCTACCACGCGATATACACACTTGTAGACATCTT [CACACA_site188],9.47
20,CGCAATTAAAATATGTGTCCTCATTTTATAACATTT [XGTACX_site5340],9.21
21,AAATTTATGTGTGCCTGTACATATCAAAGATTTAAG [XGTACX_site8547],9.14
22,ATATATATATATATATGTACATATACATATGTGCAA [XGTACX_site5604],9.14

row,Sequence,gcPBM binding intensity (ln)
1,AAATGAATAAATAGGTCACACACAAATATATATAAA [CACACA_site8764],9.91
2,AATAAATAAAGAAGTACACACATATATATATATATA [CACACA_site4314],9.38
3,TATTTTTAAAATATAAGTAAAAAAATAATATAAACT [TGCATGCA_negctrl_site283],9.37
4,CAGACATATTAAAAGAGTACATATATATATATATAT [XGTACX_site1158],9.54
5,TGTTTATTACTCAGGTGTACTCAATTTTTTTTTTTT [XGTACX_site3470],9.45
6,TACACAAATATATACATACACACATATATACGCATA [CACACA_site394],9.79
7,TAATATTGACTATATACACACATATATATATATATA [CACACA_site575],9.34
8,TGTATAATATTTGGTGCACACAAATTAACAACTGTT [CACACA_site9245],9.46
9,AATATTAAAATAAAAAGTACTTATTTATGTATGTTG [XGTACX_site2682],9.2
10,TATTTACAAAAAAAATATAAAAAATATAAAATATAT [CACACA_negctrl_site575],9.04
11,TTTATATAACAACAAAATGGAAATATATATGTATGT [TGCATGCA_negctrl_site98],9.53
12,AAAAAAAAAAAAGAACGTACAAATTAATTTATAGAA [XGTACX_site5584],9.28
13,TCTTCATATAAGAACACATGCAGATTTTTATTATTG [TGCATGCA_site682],9.16
14,GATAAAGTACTTTATACACACAAATATTTATTTATA [CACACA_site7795],9.32
15,TTATGTAAAAAAAAAAAAAAAAAAAAAAAAAAAAAA [CACACA_negctrl_site984],8.62
16,CATATAATATAATTATGTACATATATAATAATATAC [XGTACX_site5278],9.31
17,AAAAAAAAAAAAAAACGTACACATATTATGTTATTT [XGTACX_site5264],9.33
18,TCATAAAAACTAATACGTACTTAAAAATATGAACTT [XGTACX_site2939],9.21
19,AAAAAAAAGTTGTATTGTACAAAAAAAAAAAAAAAA [XGTACX_site8334],8.62
20,GTACAAAAAAAAATAAAATACATATATATATATATA [GTGCAC_negctrl_site364],9.03
21,AAAAAATTCATATATACACACACGCACATATATATA [CACACA_site4226],9.84
22,GAATATATAAGATACACACACAAATTAAATATAAAA [CACACA_site2781],10.1

row,Sequence,gcPBM binding intensity (ln)
1,AAAATATTTCATATATGTACTTAAAAAAAAAAAAAA [XGTACX_site5399],8.71
2,TATTATATATATGTTGACATATTTGTACACTCCACT [TGCATGCA_negctrl_site200],9.38
3,CACTTTTCTGGAAAAATTCCCACATTTTTTTATTAA [GTGCAC_negctrl_site322],8.98
4,AAAAAAAAAAAAAACACACACACACGCATAAATATA [CACACA_site6217],10.1
5,TTTGTTAATATAAAAACACACAAAAATAACATAAAA [CACACA_site2619],9.55
6,TCATATTGGCTGTTCTGTACTTATAAGTTTTAAAGA [XGTACX_site5593],9.33
7,ATGTAATATTTACAACGTACAAATTATAAACATATT [XGTACX_site603],9.39
8,TATATTAAAAAAGAGGTGCATTCGTAAGAGGTTAAA [GTGCAC_site9720],9.41
9,AATCCCCACTTGTCAAGTACATATATCATGGATGAA [XGTACX_site3486],9.09
10,TATTTATAACAAAGGTTAAATTAAAACTAATCCACA [TGCATGCA_negctrl_site3],9.17
11,GCCAAAATCTAATTTACACACTTATTAAATAATTAC [CACACA_site6251],9.35
12,GACATAGTCATATACTGTACTTTATATTATTGTGTA [XGTACX_site6636],9.36
13,TTTTTTTTCATTGGTTGTACAATATTTATAATTCAC [XGTACX_site7036],9.37
14,TTTTTTTTTTTTTTTTGTACTTATAAAAAATTTTTT [XGTACX_site1249],8.18
15,TACAGATATAAACACACACACATATATATATATATA [CACACA_site4846],9.85
16,ATCTGACAAAAGTGTACACATATATATATATATATA [CACACA_site4814],9.22
17,AAATGGGAAATTTCATGTACTCATTTACCCTTATTA [XGTACX_site4740],8.93
18,CACATAATGAAAAATACACACATGTATATTTATAAA [CACACA_site2736],9.34
19,GTTAATTTTTGTATAGTGCAAAAATATAATAGTATG,9.16
20,TGTTGGTATGTGAATGCATGCATATAAGTCTATCTG [TGCATGCA_site780],9.19
21,TTGAAGTATAATAAAGTGCAAAATTATAATGATCTT [GTGCAC_site9639],9.31
22,AAGGGAAAAAAAAAAGCACACATACGTAAATATATA [CACACA_site7960],9.48

row,Sequence,gcPBM binding intensity (ln)
1,TATTTCACACAGTATATATATATATATATATATATA [TGCATGCA_negctrl_site118],9.21
2,AAAAGATAAAATTATGCACACATACGAATAATTTTA [CACACA_site8497],9.42
3,TTATAATATAAAAAATGTACATTAAAAAAAAAGATT [XGTACX_site8950],9.4
4,AAGTATCAAAAATAAAGTACATATTTTGTAGGCAGG [XGTACX_site1463],9.47
5,CAAAAAATATATTTTTGTACTTATGTTTTTATTTTG [XGTACX_site5230],9.38
6,TAGTATAATATGAACACACACACACCCACAAAAAAA [CACACA_site2009],10
7,TGGATATATGTAAAAATTGCAAGAAAGATAAAAGGA [CACACA_negctrl_site64],9.6
8,ATTATGATATATATATGTACATATATATAATATAAT [XGTACX_site259],9.21
9,TCTATGAATTAATATGCATGTAACGTATTTATACTT [TGCATGCA_site669],9.29
10,AAAAAAAAAAAAAGTGCACACTTTTAATATAAATAT [CACACA_site3314],9.16
11,TTTTATATATATTATACACACAAGGAAAAAAAAAAA [CACACA_site3677],9.53
12,TTTTTATTTTTTAGTAGTACACACTTTTTGAACCTT [XGTACX_site1091],9.41
13,TTTTTTTTTTTCCTTACACACATATTTCATTTTATA [CACACA_site747],9.76
14,TATAAAAGGAAACACACACACATATATATATATATA [CACACA_site939],9.74
15,ATACATATACACATTTGTACATATTCCTTTTTATCG [XGTACX_site1731],9.47
16,TCTTGTTTTAATTTTTATATTATTATTTAGATATAT [CACACA_negctrl_site921],9.38
17,TTATTTAAAATGAAAAGTACATATTACTTTCTCACA [XGTACX_site5043],8.8
18,TACTAAATGATCATATGTACACATGTTTACTTTTTA [XGTACX_site1253],9.26
19,AATATATATATATATATATATATTTCAATATATAAA [XGTACX_negctrl_site187],8.95
20,CTTGGTAGTTTTTTCTTATAATCTAATTATTAATAA [CACACA_negctrl_site153],9.29
21,TTAATATGAAAACTCTGTACCCAACCTTCTTATGGA [XGTACX_site2126],9.26
